According to PMC4336329 (PLoS ONE, 2015):
Screen size: about 310,000 compounds; about 14,000 (4.5%) showed an effect of 50% or more. Effects have a minus sign here. The list shows a part of the results.

biological target: human ether-à-go-go-related gene (hERG) potassium channel (human, UniProt Q12809); experiment: primary screen, population patch clamp on CHO cells stably expressing hERG
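Further: peak tail current of the secondary pulse compared with the same well before compound.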

human ether-à-go-go-related gene (hERG) potassium channel, sequence (Q12809 whole entry, looked up): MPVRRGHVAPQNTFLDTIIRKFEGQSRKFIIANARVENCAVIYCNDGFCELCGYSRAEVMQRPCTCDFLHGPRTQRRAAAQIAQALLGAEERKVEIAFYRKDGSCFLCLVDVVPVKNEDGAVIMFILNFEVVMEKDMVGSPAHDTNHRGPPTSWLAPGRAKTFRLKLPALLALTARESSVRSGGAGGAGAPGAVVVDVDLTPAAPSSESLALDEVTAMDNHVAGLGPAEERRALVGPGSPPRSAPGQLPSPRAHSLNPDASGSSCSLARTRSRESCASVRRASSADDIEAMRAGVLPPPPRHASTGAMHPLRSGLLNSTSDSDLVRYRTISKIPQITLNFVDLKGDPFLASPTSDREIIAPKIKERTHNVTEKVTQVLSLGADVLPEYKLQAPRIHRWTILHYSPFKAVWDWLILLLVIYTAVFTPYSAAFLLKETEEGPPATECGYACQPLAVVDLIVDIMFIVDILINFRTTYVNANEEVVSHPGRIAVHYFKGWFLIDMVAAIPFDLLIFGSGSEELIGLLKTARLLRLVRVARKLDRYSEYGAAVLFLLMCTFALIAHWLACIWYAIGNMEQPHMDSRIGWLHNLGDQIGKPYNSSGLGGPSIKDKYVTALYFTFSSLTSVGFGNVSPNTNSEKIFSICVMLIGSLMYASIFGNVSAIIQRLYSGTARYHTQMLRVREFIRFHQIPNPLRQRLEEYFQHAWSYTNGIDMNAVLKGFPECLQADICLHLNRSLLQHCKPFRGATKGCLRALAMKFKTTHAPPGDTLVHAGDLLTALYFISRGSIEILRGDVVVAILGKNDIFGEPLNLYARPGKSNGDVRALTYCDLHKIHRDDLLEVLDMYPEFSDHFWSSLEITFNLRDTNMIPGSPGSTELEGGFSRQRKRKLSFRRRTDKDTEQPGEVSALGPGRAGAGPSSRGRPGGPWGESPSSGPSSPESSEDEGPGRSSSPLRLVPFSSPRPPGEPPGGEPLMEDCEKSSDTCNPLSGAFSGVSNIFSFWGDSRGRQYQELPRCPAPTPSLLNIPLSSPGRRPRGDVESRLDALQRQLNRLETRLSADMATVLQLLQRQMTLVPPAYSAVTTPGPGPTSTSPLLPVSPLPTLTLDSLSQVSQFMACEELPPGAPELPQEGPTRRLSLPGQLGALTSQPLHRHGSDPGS

Row | SMILES | hERG current change (%, negative = inhibition) at 10uM [%]
1 | CN1CCN(NC(=O)/C=C/c2ccc(Br)cc2)CC1 | -16.2
2 | COC(=O)c1ccc(COc2ccc3c(c2)CCC3)o1 | 2.33
3 | C=CCNc1nc(NC(C)(C)CO)nc(OC)n1 | 4.15
4 | Cc1ccc(S(=O)(=O)Cc2ccc(C(=O)N3CCC(C)CC3)cc2)cc1 | -21.9
5 | Cc1ccc(S(=O)(=O)N(C)c2ccc3c(ncn3C)c2[N+](=O)[O-])cc1 | -31
6 | COc1ccccc1CN1CCCC(CNC(=O)c2cccc3ccccc23)C1 (stereo not shown) | -47.8
7 | Cc1nc(CS(=O)(=O)c2ccc(Cl)cc2)cc(N2CCOCC2)n1 | 4.53
8 | Cc1ccc(S(=O)(=O)N2CCC(C(=O)OC(C)C(=O)NC(N)=O)CC2)cc1C (stereo not shown) | 0.3
9 | CSc1nsc(NC(=O)CCNC(=O)c2ccc([N+](=O)[O-])cc2)n1 | -41.9
10 | COc1ccccc1N1CCN(Cc2ccccc2F)CC1 | -17.6
11 | O=C(NC1CCN(C(=O)N2c3ccccc3Sc3ccccc32)CC1)c1ccco1 | 6.67
12 | CC1CCN(CCC(=O)N2CCCc3c2c(=O)oc2ccc(O)cc32)CC1 | -14
13 | CCn1cc(Br)c(C(=O)Nc2ccc(Cl)c(Cl)c2)n1 | 10.4
14 | COc1ccccc1NS(=O)(=O)c1cccc(C(=O)N2CCN(C(=O)c3ccco3)CC2)c1 | -15.6
15 | CCOC(=O)c1sc2nc(C)nc(SCC(=O)NC(C)CCc3ccccc3)c2c1C (stereo not shown) | 3.45
16 | CCOc1ccc(S(=O)(=O)N2CCN(C(=O)CCC(=O)N3CCOCC3)CC2)cc1 | 5
17 | CC(C)c1ccc(NC(=O)C2CC3CCC2C3)cc1 (stereo not shown) | -12.7
18 | Cc1[nH]c2ccccc2c1N=Nc1cc(C(=O)O)cc(C(=O)O)c1 | -12.3
19 | O=C(CCn1cnc2ccccc2c1=O)Nc1ccc(S(=O)(=O)N2CCCC2)cc1 | 17.4
20 | CCOC(=O)N1CCN(C(=O)c2ccc3c(c2)N(CC)CCS3)CC1 | -10.4
21 | CCOC(=O)c1[nH]c(COC(=O)CCOc2ccccc2OC)c(C(=O)OCC)c1C | -8.12
22 | COC(=O)C1=C(C)NC(=S)NC1c1ccc(-c2cccc(Cl)c2)o1 (stereo not shown) | 0.0503
23 | CCc1ccc2nc3n[nH]c(N)c3cc2c1 | -1.93
24 | COc1cc([N+](=O)[O-])ccc1NC(=O)CN1CCOCC1 | 9.44
25 | CCn1nc(C)c(/C=N/NC(=O)Cn2nnnc2N)c1C | 18.4
26 | COCCn1c(C)cc(C(=O)COC(=O)c2[nH]c(C)c(C(C)=O)c2C)c1C | -8.96
27 | Br.COc1ccc(-c2csc(Nc3ccc(S(N)(=O)=O)cc3)n2)cc1 | 4.33
28 | CC1CCN(S(=O)(=O)c2ccc3c(c2)N(CC(=O)NCCCN2CC(C)CC(C)C2)C(=O)CS3)CC1 (stereo not shown) | -66.2

Row | SMILES | hERG current change (%, negative = inhibition) at 10uM [%]
29 | c1ccc2c(c1)ncn2CCC1CCCCC1 | -5.47
30 | CCCCCCOc1ccc(N2C(=O)CC(S/C(N)=N/N=C(\C)c3cccs3)C2=O)cc1 (stereo not shown) | -1.96
31 | O=C(Nc1ccccn1)c1ccc(Cl)c(S(=O)(=O)N2CCCCCC2)c1 | -32.7
32 | Cc1cccc(NC(=O)C(Cc2ccccc2)n2cccc2)c1 (stereo not shown) | -51.2
33 | O=C1c2cccnc2C(=O)N1Cc1cccs1 | -13.1
34 | COc1ccc2oc(=O)c(C(=O)NCc3ccc(C)cc3)cc2c1 | 12.5
35 | COc1ccc(NC(=O)CCNS(=O)(=O)c2ccc3c(c2)CC(C)N3C(=O)C2CC2)cc1 (stereo not shown) | 0.918
36 | COc1cc(CO)ccc1Oc1nnnn1-c1ccc(C(N)=O)cc1 | 3.7
37 | Nc1ccn(CC(=O)NCCNc2ccc([N+](=O)[O-])cn2)c(=O)n1 | 7.53
38 | CC(C)CCOc1ccc(C(=O)NCC(c2cccs2)N2CCOCC2)cc1 (stereo not shown) | -21.1
39 | COc1ccc(C(=O)NNC(=O)CSc2nnnn2-c2cc(OC)cc(OC)c2)cc1 | 11.7
40 | COc1ccc2cc(CO)n(C)c2c1 | 10.4
41 | O=C(O)CCc1ccc(-c2cccs2)n1NC(=O)c1ccc(Cl)cc1Cl | -1.02
42 | CCNc1ccc(C(=O)OCC(=O)c2cc(C)n(Cc3ccc4c(c3)OCO4)c2C)cc1[N+](=O)[O-] | 2.32
43 | O=C(CN(CC1CCCO1)C(=O)CNS(=O)(=O)c1ccc(F)cc1)NCC1CCCO1 (stereo not shown) | 5.36
44 | Cc1nc2ccccc2c2oc(C(=O)NCCCN3CCC(C)CC3)cc12 | -44.1
45 | CCn1c(COc2ccc(=O)n(-c3ccccc3)n2)nnc1SCc1ccc(OC)cc1 | -67.7
46 | Cc1cc(-c2ccc(C)c(S(=O)(=O)Nc3cc(C)on3)c2)on1 | 2.92
47 | CN1CC[C@]2(CCN3CCc4c(oc5ccccc45)[C@@H]3C2)N(C)C1=O.Cl | -11.2
48 | Cc1ccc(OC(C)C(=O)Nc2ccc(S(=O)(=O)N3CCOCC3)cc2)cc1 (stereo not shown) | 6.02
49 | O=C(CSc1ncccn1)NN=C1CCCCCCC1 | 1.7
50 | CC(C)(C)n1nnnc1C(c1cccnc1)N1CCN(c2ccccc2)CC1 (stereo not shown) | -8.19
51 | Cc1cccc(-n2nc3c(c2NC(=O)c2ccc(Br)o2)CSC3)c1C | -6.05
52 | CCN(CC)S(=O)(=O)c1ccc(C(=O)Nc2cc3oc4ccccc4c3cc2OC)cc1 | 11.5
53 | COC(=O)[C@@]1(Cc2ccc(OC)cc2)[C@@H]2C(=CC(=O)[C@H]2CC(=O)C(=O)N2CCCC2)CN1C(=O)c1ccccc1 | -26.5
54 | COc1cc(NC(=O)C2CC(=O)NC3=C2C(=O)CCC3)cc(OC)c1 (stereo not shown) | 18.4
55 | Cc1ccc(S(=O)(=O)N[C@@H](CC(C)C)C(=O)N2CCC(C(=O)N[C@H](C(=O)O)C(C)C)CC2)cc1 | 1.02
